# Laboratory results published in PubChem BioAssay AID1745845 (National Center for Advancing Translational Sciences (NCATS), 2022).
# Several values for one entry are separate records, joined by “and”; a condition that tells them apart may be missing. Identical values can stand only once. Screen size: about 360,000 compounds; about 2,600 (0.72%) were called active. The inconclusive results got no clear call from the source; some entries with a clear call stand among them for comparison. Calls come from the whole dose curve; as a rule, active = well fitted inhibition curve with a large enough effect; inconclusive = small, poorly fitted or top-dose-only effect; inactive = no such curve, though single readings can be large or run the other way. Potencies of inconclusive entries are doubtful fits and often do not repeat.
# Assay: Primary qHTS for Inhibitors of ATXN expression; note: nearly all actives have a fitted effect of over 55% in size
# Conditions: HEK-293 ATXN2-luciferase reporter, luminescence, 24 h; activity change, negative = inhibition: at 57 µM (top of the series)
# Method in brief: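 ATXN2-luciferase reporter cells (luciferase flanked by upstream and downstream ATXN2 gene portions) were treated 24 h at 37 °C with compounds at up to 57 uM. SteadyGlo luminescence gave expression; GF-AFC fluorescence gave viability.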
# % is set by controls: 0 for no effect and ±100 for the full control effect; potency is the fitted concentration of half-maximal effect; tags give direction and shape of the fitted curve.
Structure (SMILES),Potency,"activity change, negative = inhibition"
Cc1ccc(N(C)C(CNS(=O)(=O)c2ccccc2)c2ccccc2)cc1 (centres undefined),"inconclusive: 35.5 µM [inhibitor, single point]",–
COc1ccccc1NC(=O)CSc1ccc(-c2ccccn2)nn1,"inconclusive: 28.2 µM [inhibitor, single point] and inconclusive: 39.8 µM [inhibitor, single point]",–
COc1ccc(S(=O)(=O)Cc2ccc(C(=O)N3CCN(c4cccc(C)c4C)CC3)o2)cc1,"inconclusive: 25.1 µM [inhibitor, single point]",–
Cc1cccc(N2CCN(C(=O)c3cccc(N4C(=O)C5C6C=CC(C6)C5C4=O)c3)CC2C)c1 (centres undefined),"inconclusive: 35.5 µM [inhibitor, single point]",–
COc1cccc(C=C(C(C)=O)C(=O)c2ccccc2)c1,"inconclusive: 39.8 µM [inhibitor, single point]",–
Clc1cccc(-c2nc3ccccn3c2Nc2ccc3c(c2)OCCO3)c1,"inconclusive: 25.1 µM [inhibitor, single point]",–
COCCCNc1ccn2nc(-c3ccccc3)cc2n1,"inconclusive: 20 µM [inhibitor, single point]",–
COC(=O)c1ccc(Nc2nc(-c3ccccc3Cl)nc3ccccc23)cc1,"inconclusive: 28.2 µM [inhibitor, partial curve, poor fit]",–
CCCCn1c(N)c(N(CC(C)C)C(=O)c2ccc(-c3ccc(Cl)cc3)o2)c(=O)[nH]c1=O,"inconclusive: 17.8 µM [inhibitor, single point]",–
Cc1cc2nn(-c3ccc(F)cc3)nc2cc1NC(=O)c1cccc([N+](=O)[O-])c1C,–,inactive: 20.1%
O=C1c2cc(Cl)ccc2-c2c(O)cc(Cl)cc21,"inconclusive: 25.1 µM [inhibitor, single point]",–
COc1ccc(C(=O)NC(=S)Nc2cccnc2)cc1Cl,–,inactive: 15.4%
COc1ccc2nc(NC(=O)C3CCN(S(=O)(=O)c4cccc5nsnc45)CC3)sc2c1,"inconclusive: 10 µM [inhibitor, partial curve, poor fit]",–
NC(=O)C1CCN(c2nc(-c3ccccc3)nc3c2oc2ccccc23)CC1,"inconclusive: 22.4 µM [inhibitor, partial curve, poor fit]",–
N#C/C(=C/c1ccccc1Cl)c1nc2ccccc2c(=O)[nH]1,"inconclusive: 25.1 µM [inhibitor, partial curve, poor fit]",–
CCC(c1nnnn1Cc1ccc(OC)cc1)N1CCN(c2ccc(OC)cc2)CC1 (centres undefined),"inconclusive: 2.12 µM [inhibitor, full curve, poor fit]",–
NS(=O)(=O)c1ccc(N=Nc2c(-c3ccccc3)[nH]n(-c3nc(-c4ccccc4)cs3)c2=O)cc1,"inconclusive: 12.6 µM [inhibitor, partial curve, poor fit]",–
Cc1ccc(Cn2c(CO)cnc2SCC(=O)NCc2ccccc2Cl)cc1,–,inactive: -19.9%
CCOc1cc(CNCCCN2CCOCC2)cc(Br)c1OCC(=O)Nc1cccc(C(F)(F)F)c1,active: 22.4 µM,–
O=C(CCCN1C(=O)/C(=C/c2ccccc2Cl)SC1=S)Nc1ccccn1,active: 16.8 µM,–
Nc1nc(NCCNc2ncc(-n3ccnc3)c(-c3ccc(Cl)cc3Cl)n2)ccc1[N+](=O)[O-],"inconclusive: 34.3 µM [inhibitor, single point]",–
CN(C)CCCN(C(=O)c1cc(-c2cccs2)nc2ccccc12)c1nc2ccc(F)cc2s1,"inconclusive: 39.8 µM [inhibitor, single point]",–

Structure (SMILES),Potency,"activity change, negative = inhibition"
COc1cccc(NC(=O)/C(C#N)=C/c2c(C)n(Cc3ccccc3)c3ccccc23)c1,–,inactive: -4.67%
COC(=O)c1ccc(Nc2cc(C)nc3ccccc23)cc1,"inconclusive: 39.8 µM [inhibitor, single point]",–
Cc1nc2c(OCc3cccc(Cl)c3)cccn2c1N(C)Cc1cccs1,"inconclusive: 17.8 µM [inhibitor, partial curve, poor fit]",–
CSc1ccc(/C=C/c2nc3ccccc3n2S(=O)(=O)c2ccc(Br)cc2)cc1,"inconclusive: 39.8 µM [inhibitor, single point]",–
O=C(Nc1ccc(-c2nc3cccnc3s2)cc1)C1CCCO1 (centres undefined),"inconclusive: 8.44 µM [inhibitor, partial curve, poor fit]",–
COc1ccc(CNC(=O)Nc2nc(C(N)Cc3ccc(Cl)cc3)cs2)cc1 (centres undefined),"inconclusive: 39.8 µM [inhibitor, single point]",–
COc1cccc(C(C)(O)c2nc(/C=C/c3ccccc3)cs2)c1 (centres undefined),–,inactive: -2.23%
O=C(CSc1nnc(COc2ccc(F)cc2)o1)N1c2ccccc2CCc2ccccc21,–,inactive: -14.7%
CCOC(=O)C1=C(C)n2c(s/c(=C/c3cccc([N+](=O)[O-])c3)c2=O)=NC1c1ccc(O)c(OC)c1 (centres undefined),"inconclusive: 20 µM [inhibitor, partial curve]",–
COc1ccc(/C=C/C(=O)Nc2cccc(F)c2)cc1S(=O)(=O)N1CCOCC1,"inconclusive: 28.2 µM [inhibitor, single point]",–
COc1ccc(CN(C)C(=O)c2cccc(S(=O)(=O)N3CCCc4ccccc43)c2)c(OC)c1OC,"inconclusive: 22.4 µM [inhibitor, single point]",–
CCN(CC)c1ccc(N=C2C(=O)Nc3ccccc32)cc1,"inconclusive: 20 µM [inhibitor, partial curve, poor fit]",–
CCCCCCCCCCCCCCCC[N+](C)(C)Cc1ccc(F)cc1,"inconclusive: 15.8 µM [inhibitor, partial curve, poor fit]",–
CC(C)Cc1nnc(NS(=O)(=O)c2ccc([N+](=O)[O-])cc2)s1,"inconclusive: 0.398 µM [inhibitor, partial curve, poor fit]",–
CCc1ccccc1NC(=O)C(CC)Sc1nc2cc3c(cc2c(=O)n1Cc1ccco1)OCO3 (centres undefined),active: 15.8 µM,–
Cc1ccc(C(=O)Nc2ncc(C)s2)s1,"inconclusive: 22.4 µM [inhibitor, single point]",–
O=C(C1CCCCC1)N1CCN(c2ccnc3cc(Cl)ccc23)CC1,active: 17.8 µM,–
CCN(CC)C(=O)c1cccc(-c2csc(C(O)(c3ccccc3)C(F)(F)F)n2)c1 (centres undefined),"inconclusive: 39.8 µM [inhibitor, single point]",–
Cn1c(OCC2CCCO2)nc2cc(-c3ccccc3)sc2c1=O (centres undefined),"inconclusive: 39.8 µM [inhibitor, partial curve, poor fit]",–
COc1ccc(CNCCC(c2ccccc2)C2CCOC(C)(C)C2)cc1 (centres undefined),–,inactive: -11.1%
N/C(=C\C(=O)c1cc(Cl)ccc1O)C(Cl)(Cl)Cl,active: 20 µM,–
O=C(N/N=C/C=C/c1ccc([N+](=O)[O-])cc1)C1COc2ccccc2O1 (centres undefined),–,inactive: -18%

Structure (SMILES),Potency,"activity change, negative = inhibition"
Nc1c(C(=O)NCc2ccco2)c2nc3ccccc3nc2n1CCc1ccccc1F,"inconclusive: 17.8 µM [inhibitor, partial curve, poor fit]",–
O=c1cc(CSc2nnc(Nc3ccccc3F)s2)nc2sccn12,"inconclusive: 29.9 µM [inhibitor, partial curve, poor fit]",–
CCn1c(CNC(=O)COc2ccc(C(C)C)cc2)nnc1SCC(=O)Nc1ccccc1C(C)C,–,inactive: -25.8%
CC1(C(=O)NCc2ccccc2Br)CCN1Cc1ccc2ccccc2c1 (centres undefined),–,inactive: -22.8%
O=C(NC(=S)N(CCCCO)C1CCCCC1)c1sc2ccccc2c1Cl,"inconclusive: 39.8 µM [inhibitor, single point]",–
CCCOc1cccc(-c2cc(C(=O)NN)c3ccccc3n2)c1,"inconclusive: 7.08 µM [inhibitor, partial curve, poor fit]",–
COc1ccc(CCN2C(=O)CSC2c2ccc(OC)c(OC)c2)cc1OC (centres undefined),–,inactive: -1.73%
Cc1c(C(=O)NC(=S)Nc2ccccc2N2CCCC2)cccc1[N+](=O)[O-],–,inactive: 5.23%
C/C=C(\C)C(=O)OC1[C@H](OC(C)=O)C2(CO)C(CC1(C)C)C1=CCC3C4(C)CCC(O[C@@H]5O[C@H](C(=O)O)[C@@H](O[C@@H]6O[C@H](CO)[C@@H](O)[C@H](O)[C@H]6O)[C@H](O)[C@H]5O[C@H]5O[C@H](CO)[C@@H](O)[C@H](O)[C@H]5O)[C@](C)(CO)C4CCC3(C)[C@]1(C)C[C@H]2O (some centres undefined),active: 8.91 µM,–
Cc1ccc(/C(O)=C/C(=O)C(=O)NC23CC4CC(CC(C4)C2)C3)cc1,–,inactive: 11.1%
c1ccc2c(c1)nc(CN1CCOCC1)n1c3ccccc3nc21,–,inactive: 0.877%
O=C(Nc1ccc(OCC(F)(F)C(F)F)c(C(F)(F)F)c1)c1ccccc1O,"inconclusive: 39.8 µM [inhibitor, single point]",–
Cc1c(C(=O)NCCSCc2ccc(Cl)cc2Cl)cccc1[N+](=O)[O-],"inconclusive: 25.1 µM [inhibitor, partial curve, poor fit]",–
COc1ccc2[nH]c3c4c(ccc3c2c1)C(=O)C=CC4=O,active: 3.55 µM,–
CN(CC(=O)NCCc1ccc(F)cc1)Cc1cccc(Cl)c1,–,inactive: -10%
C=CCOc1ccc(CNCCc2ccc(S(N)(=O)=O)cc2)cc1,–,inactive: -14.4%
COc1cccc(NC(=S)N(CCc2c(C)[nH]c3ccccc23)Cc2cccs2)c1,"inconclusive: 35.5 µM [inhibitor, single point]",–
CCCc1nc(NC2CCCCC2)c(C#N)c2c1COC(C)(C)C2,"inconclusive: 35.5 µM [inhibitor, single point]",–
CC(=O)N1CCN(c2ccc(NCc3ccc(-c4ccc(Br)cc4)o3)cc2)CC1,"inconclusive: 20 µM [inhibitor, partial curve]",–
CCc1ccc(/C=C/C(=O)c2c(C)cc(C)[nH]c2=O)cc1,"inconclusive: 25.1 µM [inhibitor, single point]",–
